# According to PMC4336329 (PLoS ONE, 2015):
# About 14,000 (4.5%) of roughly 310,000 compounds showed an effect of 50% or more. The effect is printed as a negative number. The list shows a part of the results.
# Molecular target: human ether-à-go-go-related gene (hERG) potassium channel (human, UniProt Q12809)
# Assay: primary screen, population patch clamp on CHO cells stably expressing hERG
# 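Further: peak tail current of the secondary pulse compared with the same well before compound.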
# Sequence of human ether-à-go-go-related gene (hERG) potassium channel (Q12809 whole entry, looked up): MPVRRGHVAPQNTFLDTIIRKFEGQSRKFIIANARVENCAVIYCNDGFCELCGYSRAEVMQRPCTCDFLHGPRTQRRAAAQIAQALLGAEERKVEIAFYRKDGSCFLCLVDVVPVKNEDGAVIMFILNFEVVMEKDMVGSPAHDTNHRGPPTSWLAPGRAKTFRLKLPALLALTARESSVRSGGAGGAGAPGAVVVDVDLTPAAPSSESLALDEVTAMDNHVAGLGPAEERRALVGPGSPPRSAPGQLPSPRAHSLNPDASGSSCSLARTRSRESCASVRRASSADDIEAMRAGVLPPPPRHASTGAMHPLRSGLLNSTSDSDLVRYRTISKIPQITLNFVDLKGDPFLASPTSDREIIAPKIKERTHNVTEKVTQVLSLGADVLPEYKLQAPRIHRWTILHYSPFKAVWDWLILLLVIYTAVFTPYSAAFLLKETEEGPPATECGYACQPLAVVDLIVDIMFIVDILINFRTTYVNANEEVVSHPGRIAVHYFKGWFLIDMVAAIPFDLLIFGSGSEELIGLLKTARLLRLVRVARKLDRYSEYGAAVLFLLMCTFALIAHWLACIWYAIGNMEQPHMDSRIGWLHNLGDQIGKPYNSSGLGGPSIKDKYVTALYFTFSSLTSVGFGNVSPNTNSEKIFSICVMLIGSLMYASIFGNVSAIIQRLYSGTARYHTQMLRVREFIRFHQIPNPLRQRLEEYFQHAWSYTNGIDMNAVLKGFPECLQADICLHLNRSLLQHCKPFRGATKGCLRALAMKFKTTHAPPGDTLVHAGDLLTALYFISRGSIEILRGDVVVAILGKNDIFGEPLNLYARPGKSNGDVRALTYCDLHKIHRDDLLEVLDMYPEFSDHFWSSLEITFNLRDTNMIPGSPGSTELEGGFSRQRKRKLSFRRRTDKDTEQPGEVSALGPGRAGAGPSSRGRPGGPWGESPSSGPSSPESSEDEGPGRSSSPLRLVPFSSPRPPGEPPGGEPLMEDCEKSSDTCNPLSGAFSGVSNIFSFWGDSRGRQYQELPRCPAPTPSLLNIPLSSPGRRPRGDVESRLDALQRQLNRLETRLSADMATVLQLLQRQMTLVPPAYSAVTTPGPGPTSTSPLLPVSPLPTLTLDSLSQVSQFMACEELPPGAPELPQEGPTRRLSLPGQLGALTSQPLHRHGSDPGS
row,SMILES,"hERG current change (%, negative = inhibition) at 10uM"
1,CC(=O)Nc1ccc(NC(=O)[C@@H](NC(=O)c2cccc(C)c2)C(C)C)cc1,11%
2,O=C(NC1c2ccccc2-c2ccccc21)c1ccco1,-8.29%
3,COc1ccc(CN(C)Cc2c(O)ccc3cc(Br)ccc23)cc1OC,-37.3%
4,CC1CCN(S(=O)(=O)c2ccc3c(ccn3CC(=O)O)c2)CC1,14.6%
5,Cc1nn(C(C)C(=O)NC2CCCCC2)c(=O)c2nn(-c3ccccc3)c(C)c12 (centres unmarked),-26.7%
6,CCOC(=O)CNC(=O)CSc1nc(NCc2ccccc2)nc(N(C)C)n1,-13.8%
7,Cl.c1ccc2c(c1)nc1n2CCN1CCN1CCCC1,-3.08%
8,O=C(O)c1n[nH]c2c1CCCCC2,-23.2%
9,COc1cccc(NC(=O)N2CCCC2C(=O)NCc2ccccc2)c1 (centres unmarked),6.71%
10,Cc1cccc(-c2nc(CS(=O)CC(=O)NC3CCCC(C)C3C)c(C)o2)c1 (centres unmarked),-0.417%
11,NC(=O)c1cccnc1Oc1cccc(Cl)c1,11.8%
12,O=C(O)CSc1cc(C(=O)c2ccccc2O)cn2c(=O)c3c(-c4ccccc4)csc3nc12,-1.71%
13,CCOC(=O)c1c(N)sc(C(=O)N(C)C)c1C,16.6%
14,O=C(O)CCNc1ccc(NCCC(=O)O)c2c1C(=O)c1ccccc1C2=O,27.8%
15,Nc1cc(OC(=O)c2cccs2)nn1S(=O)(=O)c1ccc(F)cc1,-4.68%
16,Cc1ccccc1CC(=O)Nc1ccc2c(c1)CCC2,18.3%
17,O=C(NCC1CC1)c1onc(CSc2ccc(F)c(F)c2)c1C(=O)NCC1CC1,-56.1%
18,COc1ccc(C(=O)NC2CCSc3ccccc32)cc1S(=O)(=O)N1CCOCC1 (centres unmarked),-9.95%
19,CCOc1ccc(S(=O)(=O)NCC2CCCO2)cc1NC(=O)c1ccccc1F (centres unmarked),19.7%
20,Cc1ccc2nc(N(CCCN(C)C)C(=O)c3ccc4c(c3)CCCC4)sc2c1.Cl,-71.5%
21,COC(=O)c1ccccc1NC(=O)C(=O)NCC1CCCO1 (centres unmarked),4.61%
22,CNC(=O)NC(=O)COC(=O)CCCSc1nc2ccccc2s1,2.63%
23,COc1ccc(OC)c(NC(=O)CSc2nc3scc(C)c3c(=O)[nH]2)c1,17.9%

row,SMILES,"hERG current change (%, negative = inhibition) at 10uM"
1,Cn1ccnc1SC(C(=O)O)c1ccccc1 (centres unmarked),8.77%
2,COc1ccccc1N/C=C(\C#N)c1nc2ccccc2[nH]1,15.8%
3,O=C1N=C(N2CCOCC2)S/C1=C\c1cccnc1,-0.945%
4,CCOC(=O)N1CCC(N(CCN(C)C)C(=S)Nc2cccc(Cl)c2C)CC1,12.5%
5,CC(=O)OC(C)CS(=O)(=O)c1ccccc1 (centres unmarked),15.1%
6,CC1CCCC(NC(=O)COC(=O)c2ccc3ccccc3n2)C1C (centres unmarked),-5.68%
7,O=C1NC2(CCC3(CC2)OCCO3)NN1c1ccc(Cl)cc1,-0.699%
8,Cc1cccc(NC(=O)CN2CCCN(S(=O)(=O)c3ccc(Br)s3)CC2)c1,-19.8%
9,Cc1ccc(NC(=O)COC(=O)CCc2nc3ccccc3n2-c2ccccc2)c(C)c1,18.4%
10,COc1ccc(C2NS(=O)(=O)OCC2C)cc1 (centres unmarked),16.4%
11,Cc1ccc(-c2ccc(=O)n(CC(=O)NCCCN3CCCCC3C)n2)cc1 (centres unmarked),-10.3%
12,CN(C)CCCC1(O)c2ccccc2C=Cc2ccccc21,-2.07%
13,Cc1cc(C)cc(N(CC(=O)NCc2ccc(F)cc2)C(=O)c2snc(C(N)=O)c2N)c1,9.77%
14,Cn1c(=O)c2c(ncn2CC(=O)Nc2ccccc2Sc2ccccc2)n(C)c1=O,-8.95%
15,Cc1cccc(OCC(=O)NCCNC(=O)c2cccnc2)c1,17.1%
16,C/C(=N\NC(=O)c1nnn(-c2nonc2N)c1-c1ccccc1)c1ccco1,15%
17,Cc1cccc(N2CCN(C(=O)CCCn3c(=O)[nH]c4ccsc4c3=O)CC2C)c1 (centres unmarked),-3.95%
18,Cc1ccc(NC(=O)C2CCCN2C(=O)NC2CCCCC2)c(C)c1 (centres unmarked),11.7%
19,Cc1ccccc1-n1nc(C)c2cc(C(=O)NCc3cccnc3)sc21,-31%
20,Cc1ncc(CO)c2c1Oc1nc(-c3ccccc3F)nc(SCC(=O)N(C)c3ccccc3)c1C2,14.2%
21,O=C(CN1C(=O)C2CCCCC2C1=O)Nc1cccc([N+](=O)[O-])c1 (centres unmarked),-13.3%
22,N#Cc1cc(C(=O)c2ccccc2OCC(=O)Nc2ccccc2Cl)cn(C2CCCCC2)c1=O,-24.5%
23,COc1ccc(/C=C/C(=O)OCC(=O)Nc2cccc(Oc3ccccc3)c2)c(OC)c1,7.56%

row,SMILES,"hERG current change (%, negative = inhibition) at 10uM"
1,CC(=O)c1ccc(NC(=O)CN2CCCC2)cc1,8.04%
2,CCOC(=O)Cc1cnc(NC(=O)CSc2nc(C(C)C)cc(=O)[nH]2)s1,8.86%
3,COc1cc(/C=C/C(=O)OCC(=O)NC(=O)NC2CCCCC2C)ccc1OC(F)F (centres unmarked),7.03%
4,NS(=O)(=O)c1cccc(NC(=O)CC(NC(=O)c2ccccc2Cl)c2ccccc2)c1 (centres unmarked),6.92%
5,O=C(CSc1n[nH]c(Cc2ccccc2)n1)Nc1ccccc1Br,-8.28%
6,Cc1ccc(SCC(=O)N(Cc2nc(-c3ccccc3)no2)C(C)C)cc1,-0.577%
7,CN(C)c1ccc(CN(C(=O)/C=C/c2ccco2)C2CCS(=O)(=O)C2)cc1 (centres unmarked),10.3%
8,O=C(CN1CCc2ccccc2C1)c1cccs1.O=C(O)C(=O)O,1.44%
9,CSc1ccccc1NC(=O)COC(=O)c1ccc(O)cc1,-12.8%
10,CCn1ncc([N+](=O)[O-])c1C(=O)n1nc(C)cc1C,-0.972%
11,O=C(C1CCCCN1S(=O)(=O)c1ccc(F)cc1)N1CCN(c2ccccc2F)CC1 (centres unmarked),-33.6%
12,O=C(O)C1CC1C(=O)Nc1nc2c(Cl)cccc2s1 (centres unmarked),13.1%
13,COc1cc(-c2nc3ccccn3c2/N=C/c2cccc(F)c2)ccc1O,4.38%
14,CCc1nnc(NC(=O)c2cccc(S(=O)(=O)N3CCN(c4ccccc4)CC3)c2)s1,5.01%
15,CCC(=O)N1CCc2cc(S(=O)(=O)NC(Cc3ccccc3)C(=O)NC3CCCCC3C)ccc21 (centres unmarked),-9.37%
16,CC(NC(=O)COC(=O)CSc1ccc(F)cc1)c1ccc(F)cc1 (centres unmarked),10.5%
17,Cc1ccc(NC(=O)CNC(=O)c2ccc3c(c2)OCO3)nc1,1.63%
18,Cc1ccc2c(c1)CC1(CN2C)C(=O)NC(=O)N(c2ccccc2C)C1=O (centres unmarked),11.6%
19,O=C(Cc1cccs1)N1CCC2(CC1)OCCO2,-3.26%
20,Cc1cc(-c2n[nH]c(=S)n2/N=C/c2cccc(O)c2)n[nH]1,28.2%
21,CCc1nnc(NC(=O)c2ccc(S(=O)(=O)N3CCc4ccccc4C3)cc2)s1,8.99%
22,O=S(=O)(NCCc1ccncc1)c1ccccc1,4.04%
23,CC1CCN(C(=O)C(=O)Nc2sc3c(c2C(N)=O)CC(C)(C)OC3)CC1,3.89%

row,SMILES,"hERG current change (%, negative = inhibition) at 10uM"
1,COc1ccc(C(=O)c2coc3c2C(=O)C(=O)c2ccccc2-3)cc1,6.77%
2,CCC(=O)Nc1ccc(Br)c(Cl)c1,9.04%
3,COc1ccccc1C(=O)NCCC(=O)NCC(c1ccc(F)cc1)N1CCOCC1 (centres unmarked),2.85%
4,CCOC(=O)c1c(NC(=O)CN2C(=O)c3ccccc3C2=O)sc(Cc2ccc3c(c2)OCO3)c1C,9.12%
5,CCOC(=O)N=Nc1c(O)n(Cc2ccccc2)c2ccccc12,-1.52%
6,CCC(=O)Nc1ccc(CCC(=O)N2CCCC2)cc1,16.8%
7,CC1(c2ccccc2)CC(C)(C)n2c(O)c(C3=NC(=S)NC3=O)c3cccc1c32 (centres unmarked),7.79%
8,CC(C)C(=O)NNc1ccc(C(F)(F)F)cn1,29.4%
9,CC(C)c1ccc(C2C3CSCC=C3C(C#N)=C(N)C2(C#N)C#N)cc1 (centres unmarked),2.89%
10,Cc1ccc(S(=O)(=O)Nc2ccc3oc(=O)sc3c2)c(C)c1,-11.1%
11,CCN(CC)C(=O)c1ccccc1NS(=O)(=O)c1cccs1,0.00858%
12,Cc1sc2ncn3cnnc3c2c1C,-1.29%
13,CCc1cc(=O)oc2c(C)c(OC(C)C(=O)N3CC[C@@]4(O)CCCC[C@H]4C3)ccc12 (some centres unmarked),-3.21%
14,Cc1ccc(NC(=O)CSc2nc(-c3ccco3)nc3cc(=O)[nH]n23)c(Cl)c1,11.9%
15,COCCn1c(C(C)C)nc2ccccc21,4.45%
16,O=C(Nc1ccc(F)cc1)N1CC2CC(C1)c1cccc(=O)n1C2 (centres unmarked),24.3%
17,Cc1ccc(NC(=O)Cc2nnc(SCC(=O)Nc3ccccc3)n2C)cc1,7.11%
18,N#CC1c2ccccc2C=CN1C(=O)c1ccccc1 (centres unmarked),-18.7%
19,CCOc1ccccc1N1CCN(C(=O)c2ccc3c(c2)OCO3)CC1,-7.22%
20,Cc1cccc(OCC(=O)Nc2ccc3c(c2)C(=O)NC3=O)c1,-5.56%
